The record followed here is the supplement of paper PMC8728848.

The other results are listed elsewhere or left out.

Holding throughout (assay): glycan array binding signal (z-score within array); higher = stronger binding
Conditions in all cases: glycan notation: IUPAC condensed, linker removed

Experiment [1] has as its target Gal(b1-4)GlcNAc(b1-6)GalNAc. The essentials:
(§1)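 From the Consortium for Functional Glycomics database, 3228 arrays were curated, keeping only those whose protein sequence was available. Binding is given as a within-array Z-score averaged across arrays sharing a protein sequence and across linkers. Negative Z-scores can be read as non-binding.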

In experiment [2] the target is Gal(b1-4)GlcNAc(b1-6)[Gal(b1-3)]GalNAc. Summed up:
as §1

Experiment [3] deals with Gal(b1-4)GlcNAc(b1-6)[Gal(b1-4)GlcNAc(b1-3)]GalNAc. Summed up:
as §1

Another experiment deals with Gal(b1-4)GlcNAc6P. The essentials: as §1
The next experiment has as its target Gal(b1-6)Gal. Summed up:
as §1

For the next experiment, the target named is Gal3S(b1-3)GalNAc. The essentials:
as §1

For a further experiment, the target named is Gal3S(b1-3)GlcNAc. Summed up:
as §1

Experiment [4] concerns the target Gal3S(b1-3)[Fuc(a1-4)]GlcNAc. The essentials: as §1
The target of the next experiment is Gal3S(b1-4)Glc. The essentials: as §1
Another experiment has as its target Gal3S(b1-4)Glc6S. Summed up: as §1
The target of a further experiment is Gal3S(b1-4)GlcNAc. The essentials:
as §1

Experiment [5] concerns the target Gal3S(b1-4)[Fuc(a1-3)]Glc6S. Summed up:
as §1

In experiment [6] the target is Gal3S(b1-4)[Fuc(a1-3)]GlcNAc. The essentials: as §1
For experiment [7], the target named is Gal3S(b1-4)[Fuc(a1-3)]GlcNAc6S. The essentials:
as §1

Another experiment deals with Gal3S4S(b1-4)GlcNAc. Summed up:
as §1

A further experiment has as its target Gal3S6S(b1-4)GlcNAc. Summed up: as §1
The next experiment deals with Gal3S6S(b1-4)GlcNAc6S. The essentials: as §1
Another experiment addresses Gal4S(b1-4)GlcNAc. The essentials:
as §1

The next experiment concerns the target Gal4S6S(b1-4)GlcNAc. Summed up: as §1
In a further experiment the target is Gal6P(b1-4)GlcNAc. The essentials: as §1
A further experiment concerns the target Gal6S(b1-3)GlcNAc. Summed up:
as §1

A further experiment deals with Gal6S(b1-3)GlcNAc6S. The essentials:
as §1

The target of a further experiment is Gal6S(b1-4)Glc. The essentials: as §1

B1: Mermaid3 (Stilbonema majum) (protein)
chain: MGSSHHHHHHSSGLVPRGSHMAASGWLRSPQGTVVKLYRRSLSWSKADEFCKDVDGRLVVDRTADMHLFLIKNVLKEKKSRVWVGLRRTASHSRTWIWSDGTRQNEGDLDANLWLRDEPNDAAGEEECALFMYSPWEKAWGLNDYLCRGGCRNYQFICEKWIR
Consider B1, for which the “glycan array binding signal (z-score)” value in experiment [1] was 0.236; in [2] it was 1.64; in experiment [3], -0.123; with Gal(b1-4)GlcNAc6P, -0.046; with Gal(b1-6)Gal, 1.95; with Gal3S(b1-3)GalNAc it was 0.422. In addition, the “glycan array binding signal (z-score)” value was 0.075 with Gal3S(b1-3)GlcNAc; -0.275 in experiment [4]; -0.59 with Gal3S(b1-4)Glc; -0.077 in the experiment with Gal3S(b1-4)Glc6S; 0.944 with Gal3S(b1-4)GlcNAc; 0.09 in [5]. Further, the “glycan array binding signal (z-score)” value was 0.672 in experiment [6]; 1.3 in experiment [7]; -0.329 in the experiment with Gal3S4S(b1-4)GlcNAc; 1.13 in the experiment with Gal3S6S(b1-4)GlcNAc; 0.454 with Gal3S6S(b1-4)GlcNAc6S; -0.658 with Gal4S(b1-4)GlcNAc. The “glycan array binding signal (z-score)” value with Gal4S6S(b1-4)GlcNAc is -0.584; with Gal6P(b1-4)GlcNAc, -0.473; with Gal6S(b1-3)GlcNAc it was -0.509; in the experiment with Gal6S(b1-3)GlcNAc6S it was -0.579; with Gal6S(b1-4)Glc, -0.154.
